Measurements taken from PubChem BioAssay AID232 (DTP/NCI, 2004).
Toxic doses and inconclusive results are not listed. A number of entries come with more than one value. The other results are left out here. There may be further records. The records of an entry repeat one measurement across runs, samples, wells, individuals or studies. Numbered stars: 1 amine (or outer) side, 2 acyl side, 3 side chain; on linkers, the order of the positions; unused ones are H or OH. Bridge positions count the residues as written; N and C are the ends. Square brackets hold non-standard residues; d marks the D form. Peptide text beside a SMILES is read from it. I, II: the chains in the order shown. Actinocin(9to1) = Cc1c2oc3c(C)ccc(C(=O)[*:1])c3nc-2c(C(=O)[*:2])c(N)c1=O; aThr = C[C@H](O)[C@H](N)C(=O)O; NMeV = CN[C@H](C(=O)O)C(C)C; Sar = CNCC(=O)O

Test system: Gardner 6C3HED lymphosarcoma ip, C3AKF1 mice, survival T/C
Experiment: NCI In Vivo Anticancer Drug Screen. Data for tumor model Lymphosarcoma Gardner 6C3HED (intraperitoneal) in C3AKF1 (CHKRF1) mice
Conditions: endpoint: survival time, mean or median, schedule: Q01DX010 (ip), higher = longer survival
Description: The antitumor activity of compounds was measured in mice bearing transplantable tumors. Survival or tumor size were measured and the results are expressed as the measurement made in the treated group (T) divided by the measurement made in the vehicle treated control group (C). The tumor model used in this assay is Lymphosarcoma Gardner 6C3HED (intraperitoneal) in C3AKF1 (CHKRF1) mice

With N=[N+]=CC(=O)OCC(N)C(=O)O (stereo unspecified) the T/C (dose: 12.5 mg/kg/injection, vehicle: saline) was 115 % of control and 155 % of control.

With Cc1c2oc3c(C)ccc(C(=O)N[C@@H]4C(=O)N[C@H](C(C)C)C(=O)N5CCC[C@H]5C(=O)N(C)CC(=O)N(C)[C@@H](C(C)C)C(=O)O[C@H]4C)c3nc-2c(C(=O)N[C@@H]2C(=O)N[C@H](C(C)C)C(=O)N3CCC[C@H]3C(=O)N(C)CC(=O)N(C)[C@@H](C(C)C)C(=O)O[C@H]2C)c(N)c1=O (I: [aThr][dV]P[Sar][NMeV] / II: [aThr][dV]P[Sar][NMeV]; ester I:1-I:C, II:1-II:C; linker I:N-II:N via Actinocin(9to1)) the T/C (dose: 0.05 mg/kg/injection, vehicle: acid diluted with saline) was 120 % of control and 175 % of control and the T/C (dose: 0.1 mg/kg/injection, vehicle: acid diluted with saline) was 110 % of control and 185 % of control.

With NC(Cc1ccc(N(CCCl)CCCl)cc1)C(=O)O (stereo unspecified) the T/C (dose: 2.0 mg/kg/injection, vehicle: saline) was 120 % of control and 150 % of control.

With CCN(CC)CCNc1ccc(C)c2sc3ccccc3c(=O)c12 the T/C (dose: 100.0 mg/kg/injection, vehicle: saline) was 108 % of control, 123 % of control, 157 % of control.

For Oc1cc(CN(CCCl)CCCl)c(O)cc1CN(CCCl)CCCl, the T/C (dose: 1.25 mg/kg/injection, vehicle: saline) was 108 % of control and 150 % of control.
